# Data published in patent US10299477B2 (priority 2015, dated 2019).
# Experiments:
# Magnaporthe grisea = format: in vivo; conditions: for Test A (control value class, blast on rice): in vivo; for Test A control value: Blast on rice; for Test A (control value class): rice blast, Magnaporthe grisea, 250 ppm spray
# Phytophthora infestans = format: in vivo; conditions: for Test F (control value class, late blight on tomato): 250 ppm, sprayed 2.5 ml/pot before inoculation, evaluated 5-10 days after inoculation; for Test F control value: Late blight on tomato, 250 ppm sprayed before inoculation; for Test F control value / Test F (control value class): 5-10 days after inoculation; for Test F (control value class): late blight on tomato, Phytophthora infestans, 250 ppm spray
Compound,Test A (control value class) (Magnaporthe grisea),Test F (control value class) (Phytophthora infestans),further results
Cn1c(-c2c(F)cc(F)cc2F)c(-c2cc(F)cc(F)c2Cl)cc(Cl)c1=O [Compound 587],,,"Test A (control value class, blast on rice) (Magnaporthe grisea): H (H shows more than 50% of control values); Test F (control value class, late blight on tomato) (Phytophthora infestans): L (L shows 50% or less of control values)"
CCn1c(-c2c(F)cccc2F)c(-c2ccccc2C)cc(Cl)c1=O [Compound 161],,,Test A control value (Magnaporthe grisea): H (H shows more than 50% of control values); Test F control value (Phytophthora infestans): L (L shows 50% or less of control values)
CCN1C(=O)CCC(c2cc(F)cc(F)c2Cl)=C1c1c(F)cc(F)cc1F [Compound 583],,,"Test A (control value class, blast on rice) (Magnaporthe grisea): H (H shows more than 50% of control values); Test F (control value class, late blight on tomato) (Phytophthora infestans): L (L shows 50% or less of control values)"
COc1cc(OC)c(Cl)c(-c2ccc(=O)n(/C=C\F)c2-c2c(F)cc(F)cc2F)c1 [Compound 380],H (H shows more than 50% of control values),L (L shows 50% or less of control values),
CCn1c(-c2c(F)cccc2F)c(-c2ccccc2C(F)(F)F)cc(Br)c1=O [Compound 148],,,Test A control value (Magnaporthe grisea): H (H shows more than 50% of control values); Test F control value (Phytophthora infestans): L (L shows 50% or less of control values)
O=c1ccc(-c2cccc(F)c2Cl)c(-c2c(F)cccc2F)n1CC(F)F [Compound 510],H (H shows more than 50% of control values),L (L shows 50% or less of control values),
Cn1c(-c2c(F)cccc2F)c(-c2cccc(F)c2)ccc1=O [Compound 168],,,Test A control value (Magnaporthe grisea): H (H shows more than 50% of control values); Test F control value (Phytophthora infestans): H (H shows more than 50% of control values)
Cn1c(-c2c(F)cc(F)cc2F)c(-c2ccccc2Cl)ccc1=O [Compound 431],H (H shows more than 50% of control values),H (H shows more than 50% of control values),
CCn1c(-c2c(F)cc(OC)cc2F)c(-c2cccc(F)c2F)cc(Br)c1=O [Compound 589],,,"Test A (control value class, blast on rice) (Magnaporthe grisea): H (H shows more than 50% of control values); Test F (control value class, late blight on tomato) (Phytophthora infestans): L (L shows 50% or less of control values)"
CCn1c(-c2c(F)cc(OC)cc2F)c(-c2ccccc2F)cc(Br)c1=O [Compound 541],H (H shows more than 50% of control values),L (L shows 50% or less of control values),
Cn1c(-c2c(F)cc(F)cc2F)c(-c2ccc(F)cc2Cl)cc(Br)c1=O [Compound 597],,,"Test A (control value class, blast on rice) (Magnaporthe grisea): H (H shows more than 50% of control values); Test F (control value class, late blight on tomato) (Phytophthora infestans): L (L shows 50% or less of control values)"
Cn1c(-c2c(F)cccc2F)c(-c2ccccc2C(F)(F)F)ccc1=O [Compound 157],,,Test A control value (Magnaporthe grisea): H (H shows more than 50% of control values); Test F control value (Phytophthora infestans): L (L shows 50% or less of control values)
CCn1c(-c2c(F)cc(F)cc2F)c(-c2cc(OC)ccc2Cl)ccc1=O [Compound 403],H (H shows more than 50% of control values),L (L shows 50% or less of control values),
Cn1c(-c2c(F)cc(F)cc2F)c(-c2ccc(F)cc2Cl)ccc1=O [Compound 576],,,"Test A (control value class, blast on rice) (Magnaporthe grisea): H (H shows more than 50% of control values); Test F (control value class, late blight on tomato) (Phytophthora infestans): L (L shows 50% or less of control values)"
CCn1c(-c2c(F)cccc2F)c(-c2cc(F)cc(F)c2F)cc(Cl)c1=O [Compound 440],H (H shows more than 50% of control values),L (L shows 50% or less of control values),
CCn1c(-c2c(F)cc(F)cc2F)c(-c2cc(F)cc(F)c2Cl)ccc1=O [Compound 584],,,"Test A (control value class, blast on rice) (Magnaporthe grisea): H (H shows more than 50% of control values); Test F (control value class, late blight on tomato) (Phytophthora infestans): L (L shows 50% or less of control values)"
COc1cc(OC)c(Cl)c(-c2ccc(=O)n(C)c2-c2c(F)cccc2Cl)c1 [Compound 166],,,Test A control value (Magnaporthe grisea): H (H shows more than 50% of control values); Test F control value (Phytophthora infestans): H (H shows more than 50% of control values)
COc1cc(OC)c(Br)c(-c2ccc(=O)n(C)c2-c2c(F)cccc2Cl)c1 [Compound 165],,,Test A control value (Magnaporthe grisea): H (H shows more than 50% of control values); Test F control value (Phytophthora infestans): H (H shows more than 50% of control values)
CCn1c(-c2c(F)cc(F)cc2F)c(-c2cc(F)ccc2F)cc(Cl)c1=O [Compound 425],H (H shows more than 50% of control values),L (L shows 50% or less of control values),
CCOc1cc(F)c(-c2c(-c3ccccc3F)ccc(=O)n2C)c(F)c1 [Compound 591],,,"Test A (control value class, blast on rice) (Magnaporthe grisea): H (H shows more than 50% of control values); Test F (control value class, late blight on tomato) (Phytophthora infestans): L (L shows 50% or less of control values)"
CCn1c(-c2c(F)cc(F)cc2F)c(-c2cc(F)cc(F)c2F)ccc1=O [Compound 464],H (H shows more than 50% of control values),L (L shows 50% or less of control values),
Cn1c(-c2c(F)cccc2F)c(-c2cc(Cl)cc(Cl)c2Cl)ccc1=O [Compound 452],H (H shows more than 50% of control values),L (L shows 50% or less of control values),
Cn1c(-c2c(F)cccc2F)c(-c2ccc(Cl)cc2F)cc(Cl)c1=O [Compound 419],H (H shows more than 50% of control values),L (L shows 50% or less of control values),
O=c1c(Cl)cc(-c2cc(Cl)ccc2Cl)c(-c2c(F)cccc2F)n1CC(F)F [Compound 449],H (H shows more than 50% of control values),L (L shows 50% or less of control values),
O=c1c(Cl)cc(-c2cc(Cl)ccc2F)c(-c2c(F)cccc2F)n1CC(F)F [Compound 540],H (H shows more than 50% of control values),L (L shows 50% or less of control values),
CCn1c(-c2c(F)cc(F)cc2F)c(-c2cc(F)cc(F)c2F)cc(Cl)c1=O [Compound 465],H (H shows more than 50% of control values),L (L shows 50% or less of control values),
CCn1c(-c2c(F)cccc2F)c(-c2cccc(F)c2F)ccc1=O [Compound 518],H (H shows more than 50% of control values),H (H shows more than 50% of control values),
Cn1c(-c2c(F)cccc2F)c(-c2cc(Cl)cc(Cl)c2Cl)cc(Cl)c1=O [Compound 453],H (H shows more than 50% of control values),L (L shows 50% or less of control values),
